This assay has as its target ectodomain of BACE (aa 1-454) fused to a myc-his tag (Homo sapiens (Human), UniProt P56817). The format is biochemical.
[1] abbreviates: footnote b: determined according to protocols described in Example 435, read-out: IC50.

Molecules are shown by their SMILES. Where two headings read alike, the source gives them in different places.

`CO[C@H]1CC[C@]2(CC1)Cc1c(F)ccc(-c3cccc(C#N)c3)c1C21N=C(N)N(C)C1=O` (stereo partly shown) [Compound 251]: under setting [1], the IC50 was determined as 13500 nM.
Still for that read-out and setting: the value for `CN1C(=O)C2(N=C1N)c1cc(Cl)ccc1C[C@]21CC[C@@H](OC(F)F)CC1` (stereo partly shown) [Compound 275] was 20 nM; that for `CC(C)N1C(=O)C2(N=C1N)c1cc(C#N)ccc1C[C@]21CC[C@@H](OC(F)F)CC1` (stereo partly shown) [Compound 283] was 265 nM.
In the case of `CC(C)N1C(=O)C2(N=C1N)c1cc(-c3cccnc3F)ccc1CC21CCC(OC(F)F)CC1` (stereo not shown) [Compound 289], the IC50 under setting [1] amounted to 36.1 nM.
Still for that read-out and setting: as for `COC1CCC2(CC1)C(C)(C)c1ccc(-c3cccc(C#N)c3)cc1C21N=C(N)N(C)C1=O` (stereo not shown) [Compound 295], the figure is 3160 nM.
In the case of `COC1CCC2(CC1)Cc1ccc(C#CC3CC3)cc1C21N=C(N)N(Cc2ncco2)C1=O` (stereo not shown) [Compound 300], it took 14.8 nM to reach half-maximal inhibition (IC50).
Consider `COCC(C)N1C(=O)C2(N=C1N)c1cc(Br)ccc1CC21CCC(OC)CC1` (stereo not shown) [Compound 301], for which the IC50 under setting [1] was 139 nM.
Still for that read-out and setting: the value for `COC1CCC2(CC1)Cc1ccc(C#CC3CC3)cc1C21N=C(N)N(CCC(N)=O)C1=O` (stereo not shown) [Compound 304] was 4.7 nM.
As for `COC1CCC2(CC1)Cc1ccc(C#CC3CC3)cc1C21N=C(N)N(CCF)C1=O` (stereo not shown) [Compound 307], the IC50 under setting [1] came to 5.3 nM.
As to `COC1CCC2(CC1)Cc1ccc(C#CC3CC3)cc1C21N=C(N)N(CCN(C)S(C)(=O)=O)C1=O` (stereo not shown) [Compound 308], under setting [1], the IC50 is 9.3 nM.
Still for that read-out and setting: as for `COC1CCC2(CC1)Cc1ccc(CCC3CC3)cc1C21N=C(N)N(CCN(C)C)C1=O` (stereo not shown) [Compound 313], the figure is 12.3 nM; as for `COC1CCC2(CC1)Cc1ccc(CCC3CC3)cc1C21N=C(N)N(Cc2ncco2)C1=O` (stereo not shown) [Compound 314], 11.2 nM.
Still for that read-out and setting: the value for `COC1CCC2(CC1)Cc1ccc(C#CC3CC3)cc1C21N=C(N)N(CCC(=O)O)C1=O` (stereo not shown) [Compound 316] was 15.6 nM; that for `COC1CCC2(CC1)Cc1ccc(C#CC3CC3)cc1C21N=C(N)N(Cc2cnc3ccccc3n2)C1=O` (stereo not shown) [Compound 327] was 5.4 nM; that for `COC1CCC2(CC1)Cc1ccc(CCC3CC3)cc1C21N=C(N)N(Cc2ccc(C(F)(F)F)cn2)C1=O` (stereo not shown) [Compound 365] was 24.3 nM.
On to `COC1CCC2(CC1)Cc1ccc(CCC3CC3)cc1C21N=C(N)N(Cc2cccc(N(C)C)c2)C1=O` (stereo not shown) [Compound 368], for which, under setting [1], the IC50 came out at 24.8 nM.
As to `COC1CCC2(CC1)Cc1ccc(CCC3CC3)cc1C21N=C(N)N(Cc2cscn2)C1=O` (stereo not shown) [Compound 375], the IC50 (read-out: IC50) came to 8.8 nM.
On to `COC1CCC2(CC1)Cc1ccc(CCC3CC3)cc1C21N=C(N)N(CCc2nccs2)C1=O` (stereo not shown) [Compound 378], for which the IC50 under setting [1] came to 19.6 nM.
The same measure, in the same setting: the value for `COC1CCC2(CC1)Oc1ccc(-c3cccc(C#N)c3)cc1C21CCSC(N)=N1` (stereo not shown) [Compound 440] was 730 nM; that for `N#Cc1cccc(-c2ccc3c(c2)C2(CCSC(N)=N2)C2(CCc4ccccc4CC2)C3)c1` (stereo not shown) [Compound 442] was 1170 nM.
With `CCCCCc1ccc2c(c1)C1(N=C(N)N(C)O1)[C@]1(CC[C@H](OC)CC1)C2` (stereo partly shown) [Compound 493], the IC50 (read-out: IC50) was 29.8 nM.
Consider `CO[C@H]1CC[C@]2(CC1)Cc1ccc(CCC(C)C)cc1C21N=C(N)N(C)O1` (stereo partly shown) [Compound 501], for which, under setting [1], the IC50 turned out to be 15.8 nM.
For `COc1ccc(COc2ccc3c(c2)C2(N=C(N)N(C)O2)[C@]2(CC[C@H](OC)CC2)C3)cc1` (stereo partly shown) [Compound 504], where the note is “read-out: IC50”, the concentration for half-maximal inhibition (IC50) is 807 nM.
For `COC1CCC2(CC1)Cc1ccc(OCC3CC3)cc1C21N=C(N)N(CCF)C1=O` (stereo not shown) [Compound 525], the IC50 under setting [1] turned out to be 6.8 nM.
Same read-out and setting: as for `COC1CCC2(CC1)Cc1ccc(OCC3CC3)cc1C21N=C(N)N(CC(F)F)C1=O` (stereo not shown) [Compound 526], the figure is 9 nM.
Regarding `COC1CCC2(CC1)Cc1ccc(CCC(F)(F)F)cc1C21N=C(N)N(CCF)C1=O` (stereo not shown) [Compound 527], the IC50 under setting [1] is 16 nM.
As for `COC1CCC2(CC1)Cc1ccc(OCC3CC3)cc1C21N=C(N)N(CCC(F)(F)F)C1=O` (stereo not shown) [Compound 528], the IC50 under setting [1] amounted to 10 nM.
`CCCSc1ccc2c(c1)C1(N=C(N)N(C)C1=O)C1(CCC(OC)CC1)C2` (stereo not shown) [Compound 541]: under setting [1], the 50% inhibitory concentration (IC50) came to 4 nM.
Same read-out and setting: as for `CO[C@H]1CC[C@]2(CC1)Cc1ccc(-c3cnc(C)nc3)cc1C21N=C(N)N(C(C)C)C1=O` (stereo partly shown) [Compound 548], the figure is 23 nM.
On the same count and under the same terms, the value for `COCCOc1ccc2c(c1)C1(N=C(N)N(CC(F)(F)F)C1=O)[C@]1(CC[C@H](OC)CC1)C2` (stereo partly shown) [Compound 550] was 77 nM.
The same measure, in the same setting: as for `CO[C@H]1CC[C@]2(CC1)Cc1ccc(OCC3CC3)cc1[C@@]21N=C(N)N(CC(F)(F)F)C1=O` [Compound 560], the figure is 3110 nM.

Usually IC50 stands for the concentration that inhibits the measured activity by half.

The record behind these values is patent publication US9212153B2, “Inhibitors of beta-secretase” (Vitae Pharmaceuticals, Inc., priority 2009, dated 2015).
